# Results taken from the supplement of paper PMC8728848.
# This is one part of the list.
# Legend:
# Experiment in all cases: glycan array binding signal (z-score within array); higher = stronger binding
# Details in all cases: glycan notation: IUPAC condensed, linker removed
# [1] = molecular target: GlcNAc(b1-2)Gal(b1-3)GlcNAc
# How it was run: (§1)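 The Consortium for Functional Glycomics database supplied 3228 glycan arrays, of which those lacking an available protein sequence were dropped. The binding signal, a within-array Z-score, was averaged across arrays of the same protein sequence and across linkers. Negative scores can be read as non-binding.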
# [2] = molecular target: GlcNAc(b1-2)Man(a1-3)[GlcNAc(b1-2)Man(a1-6)]Man(b1-4)GlcNAc(b1-4)GlcNAc
# How it was run: as §1
# [3] = molecular target: GlcNAc(b1-3)Gal
# How it was run: as §1
# [4] = molecular target: GlcNAc(b1-3)Gal(b1-3)GalNAc
# How it was run: as §1
# [5] = molecular target: GlcNAc(b1-3)Gal(b1-4)Glc
# How it was run: as §1
# [6] = molecular target: GlcNAc(b1-3)Gal(b1-4)GlcNAc
# How it was run: as §1
# [7] = molecular target: GlcNAc(b1-3)Gal(b1-4)GlcNAc(b1-3)Gal(b1-4)GlcNAc
# How it was run: as §1
# [8] = molecular target: GlcNAc(b1-3)GalNAc
# How it was run: as §1
# [9] = molecular target: GlcNAc(b1-3)[GlcNAc(b1-4)][GlcNAc(b1-6)]GlcNAc
# How it was run: as §1
# [10] = molecular target: GlcNAc(b1-3)[GlcNAc(b1-6)]Gal(b1-4)GlcNAc
# How it was run: as §1
# [11] = molecular target: GlcNAc(b1-3)[GlcNAc(b1-6)]GlcNAc
# How it was run: as §1
# [12] = molecular target: GlcNAc(b1-4)Gal(b1-4)GlcNAc
# How it was run: as §1
# [13] = molecular target: GlcNAc(b1-4)GlcNAc(b1-4)GlcNAc
# How it was run: as §1
# [14] = molecular target: GlcNAc(b1-4)GlcNAc(b1-4)GlcNAc(b1-4)GlcNAc(b1-4)GlcNAc
# How it was run: as §1
# [15] = molecular target: GlcNAc(b1-4)GlcNAc(b1-4)GlcNAc(b1-4)GlcNAc(b1-4)GlcNAc(b1-4)GlcNAc
# How it was run: as §1
# [16] = molecular target: GlcNAc(b1-4)[GlcNAc(b1-6)]GalNAc
# How it was run: as §1
# [17] = molecular target: GlcNAc(b1-6)Gal(b1-4)GlcNAc
# How it was run: as §1
# [18] = molecular target: GlcNAc(b1-6)GalNAc
# How it was run: as §1
# [19] = molecular target: Kdn(a2-3)Gal(b1-3)GlcNAc
# How it was run: as §1
# [20] = molecular target: Kdn(a2-3)Gal(b1-4)GlcNAc
# How it was run: as §1
# [21] = molecular target: Man(a1-2)Man(a1-2)Man(a1-3)Man
# How it was run: as §1
# [22] = molecular target: Man(a1-2)Man(a1-2)Man(a1-3)[Man(a1-2)Man(a1-3)[Man(a1-2)Man(a1-6)]Man(a1-6)]Man(b1-4)GlcNAc(b1-4)GlcNAc
# How it was run: as §1
# [23] = molecular target: Man(a1-2)Man(a1-2)Man(a1-3)[Man(a1-2)Man(a1-6)[Man(a1-3)]Man(a1-6)]Man(b1-4)GlcNAc(b1-4)GlcNAc
# How it was run: as §1
# [24] = molecular target: Man(a1-2)Man(a1-2)Man(a1-6)[Man(a1-3)]Man
# How it was run: as §1
# [25] = molecular target: Man(a1-2)Man(a1-3)Man
# How it was run: as §1
# [26] = molecular target: Man(a1-2)Man(a1-3)[Man(a1-2)Man(a1-6)]Man
# How it was run: as §1
# [27] = molecular target: Man(a1-2)Man(a1-3)[Man(a1-3)[Man(a1-6)]Man(a1-6)]Man(b1-4)GlcNAc(b1-4)GlcNAc
# How it was run: as §1
# [28] = molecular target: Man(a1-2)Man(a1-3)[Man(a1-6)]Man(a1-6)[Man(a1-2)Man(a1-3)]Man(b1-4)GlcNAc(b1-4)GlcNAc
# How it was run: as §1
# [29] = molecular target: Man(a1-3)[Man(a1-6)]Man
# How it was run: as §1
# [30] = molecular target: Man(a1-3)[Man(a1-6)]Man(a1-6)[Man(a1-3)]Man(b1-4)GlcNAc(b1-4)GlcNAc
# How it was run: as §1
# [31] = molecular target: Man(a1-3)[Man(a1-6)]Man(b1-4)GlcNAc(b1-4)GlcNAc
# How it was run: as §1
# [32] = molecular target: Man(b1-4)GlcNAc
# How it was run: as §1
# [33] = molecular target: Neu5Ac(a2-3)Gal
# How it was run: as §1
# [34] = molecular target: Neu5Ac(a2-3)Gal(b1-3)GalNAc
# How it was run: as §1
# [35] = molecular target: Neu5Ac(a2-3)Gal(b1-3)GalNAc(b1-3)Gal(a1-4)Gal(b1-4)Glc
# How it was run: as §1
# [36] = molecular target: Neu5Ac(a2-3)Gal(b1-3)GalNAc(b1-4)[Neu5Ac(a2-3)]Gal(b1-4)Glc
# How it was run: as §1
# [37] = molecular target: Neu5Ac(a2-3)Gal(b1-3)GalNAc6S
# How it was run: as §1
binder,measurement,setting,value
chitinase 3-like protein 2 (Homo sapiens) (protein) YKLVCYFTQWSQDRQEPGKFTPENIDPFLCSHLIYSFASIENNKVIIKDKSEVMLYQTINSLKTKNPKLKILLSIGGYLFGSKGFHPMVDSSTSRLEFINSIILFLRNHNFDGLDVSWIYPDQKENTHFTVLIHELAEAFQKDFTKSTKERLLLTAGVSAGRQMIDNSYQVEKLAKDLDFINLLSFDFHGSWEKPLITGHNSPLSKGWQDRGPSSYYNVEYAVGYWIHKGMPSEKVVMGIPTYGHSFTLASAETTVGAPASGPGAAGPITESSGFLAYYEICQFLKGAKITRLQDQQVPYAVKGNQWVGYDDVKSMETKVQFLKNLNLGGAMIWSIDMDDFTGKSCNQGPYPLVQAVKRSLGSL,glycan array binding signal (z-score),[1],-0.208
same,glycan array binding signal (z-score),[2],-0.078
same,glycan array binding signal (z-score),[3],-0.203
same,glycan array binding signal (z-score),[4],-0.22
same,glycan array binding signal (z-score),[5],-0.201
same,glycan array binding signal (z-score),[6],0.177
same,glycan array binding signal (z-score),[7],-0.257
same,glycan array binding signal (z-score),[8],-0.268
same,glycan array binding signal (z-score),[9],-0.223
same,glycan array binding signal (z-score),[10],-0.229
same,glycan array binding signal (z-score),[11],-0.061
same,glycan array binding signal (z-score),[12],0.235
same,glycan array binding signal (z-score),[13],-0.012
same,glycan array binding signal (z-score),[14],7.67
same,glycan array binding signal (z-score),[15],9.06
same,glycan array binding signal (z-score),[16],-0.226
same,glycan array binding signal (z-score),[17],-0.237
same,glycan array binding signal (z-score),[18],-0.222
same,glycan array binding signal (z-score),[19],-0.247
same,glycan array binding signal (z-score),[20],-0.216
same,glycan array binding signal (z-score),[21],-0.12
same,glycan array binding signal (z-score),[22],0.514
same,glycan array binding signal (z-score),[23],0.124
same,glycan array binding signal (z-score),[24],-0.22
same,glycan array binding signal (z-score),[25],-0.268
same,glycan array binding signal (z-score),[26],-0.231
same,glycan array binding signal (z-score),[27],-0.257
same,glycan array binding signal (z-score),[28],0.235
same,glycan array binding signal (z-score),[29],-0.22
same,glycan array binding signal (z-score),[30],0.17
same,glycan array binding signal (z-score),[31],0.216
same,glycan array binding signal (z-score),[32],-0.265
same,glycan array binding signal (z-score),[33],-0.255
same,glycan array binding signal (z-score),[34],-0.221
same,glycan array binding signal (z-score),[35],-0.268
same,glycan array binding signal (z-score),[36],-0.053
same,glycan array binding signal (z-score),[37],-0.271
